# Assay results from the supplement of paper PMC4604168 (melanoma cell lines).
# The other results are listed elsewhere or left out. Most values come without repeats; read them as rough.
# Columns and labels:
# Experiment in all cases: cell count relative to DMSO control; melanoma cells; higher = more viable cells
# Conditions in all cases: library dose: low library concentration; 72 h
# [1] = test system: MZ2-MEL
# [2] = test system: MeWo
# [3] = test system: RPMI7951
# [4] = test system: RVH-421
# [5] = test system: SkMel28
# [6] = test system: SkMel30
# [7] = test system: UACC62
# [8] = test system: SkMel2
# [9] = test system: SkMel5
# [10] = test system: UACC257
# 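Also: cell number obtained by counting DAPI-stained nuclei in high-throughput microscope images with image analysis software, screen run in 1,536-well plates.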
SMILES,cell count [1] [%],cell count [2] [%],cell count [3] [%],cell count [4] [%],cell count [5] [%],cell count [6] [%],cell count [7] [%],cell count [8] [%],cell count [9] [%],cell count [10] [%]
"CC[C@]1(O)C[C@H]2CN(CCc3c([nH]c4ccccc34)[C@@](C(=O)OC)(c3cc4c(cc3OC)N(C=O)[C@H]3[C@@](O)(C(=O)OC)[C@H](OC(C)=O)[C@]5(CC)C=CCN6CC[C@]43[C@@H]65)C2)C1 [vincristine] + CCCCCCCCCCCCCCCCCCOP(=O)([O-])OC1CC[N+](C)(C)CC1 [Perifosine] (first compound 0.0001 µM, partner dose 0.4 µM)",96.8,79.7,74.7,87.7,70.7,60.8,63.7,–,–,–
"N#CC[C@H](C1CCCC1)n1cc(-c2ncnc3[nH]ccc23)cn1 [ruxolitinib] + NC1(c2ccc(-c3nc4ccn5c(=O)[nH]nc5c4cc3-c3ccccc3)cc2)CCC1 [MK2206] (first compound 1 µM, partner dose 0.4 µM)",–,94.8,113,102,97,96.6,91.6,92,–,–
"Cc1cc(Nc2cc(N3CCN(C)CC3)nc(Sc3ccc(NC(=O)C4CC4)cc3)n2)n[nH]1 [Tozasertib] + Cc1cc(Nc2cc(N3CCN(C)CC3)nc(/C=C/c3ccccc3)n2)n[nH]1 [ENMD2076] (first compound 0.006 µM, partner dose 0.04 µM)",–,95,106,101,99.3,96.7,99.4,98.3,–,–
"N#CC[C@H](C1CCCC1)n1cc(-c2ncnc3[nH]ccc23)cn1 [ruxolitinib] + C=CCn1c(=O)c2cnc(Nc3ccc(N4CCN(C)CC4)cc3)nc2n1-c1cccc(C(C)(C)O)n1 [MK1775] (first compound 1 µM, partner dose 0.02 µM)",–,88.3,95.3,127,95.2,80.6,91.5,–,83.3,84.3
"Cc1cc(Nc2cc(N3CCN(C)CC3)nc(Sc3ccc(NC(=O)C4CC4)cc3)n2)n[nH]1 [Tozasertib] + N#CC[C@H](C1CCCC1)n1cc(-c2ncnc3[nH]ccc23)cn1 [ruxolitinib] (first compound 0.006 µM, partner dose 1 µM)",–,102,137,99.8,128,120,113,96.8,–,–
"N#CC[C@H](C1CCCC1)n1cc(-c2ncnc3[nH]ccc23)cn1 [ruxolitinib] + NC(=O)c1ccc(N(C(N)=O)c2c(F)cccc2F)nc1-c1ccc(F)cc1F [VX702] (first compound 1 µM, partner dose 0.4 µM)",–,99.1,96.4,87.1,95,108,111,–,–,–
"N#CC[C@H](C1CCCC1)n1cc(-c2ncnc3[nH]ccc23)cn1 [ruxolitinib] + CCN(CC)CCNC(=O)c1c(C)[nH]c(/C=C2\C(=O)Nc3ccc(F)cc32)c1C [sunitinib] (first compound 1 µM, partner dose 0.4 µM)",–,100,115,120,92.2,98.5,126,111,–,–
"CC[C@]1(O)C[C@H]2CN(CCc3c([nH]c4ccccc34)[C@@](C(=O)OC)(c3cc4c(cc3OC)N(C=O)[C@H]3[C@@](O)(C(=O)OC)[C@H](OC(C)=O)[C@]5(CC)C=CCN6CC[C@]43[C@@H]65)C2)C1 [vincristine] + Cn1c(=O)n(-c2ccc(C(C)(C)C#N)cc2)c2c3cc(-c4cnc5ccccc5c4)ccc3ncc21 [NVP-BEZ235] (first compound 0.0001 µM, partner dose 0.004 µM)",–,70.3,58.6,78.2,67.3,51.6,51.9,88.7,–,–
"CC[C@]1(O)C[C@H]2CN(CCc3c([nH]c4ccccc34)[C@@](C(=O)OC)(c3cc4c(cc3OC)N(C=O)[C@H]3[C@@](O)(C(=O)OC)[C@H](OC(C)=O)[C@]5(CC)C=CCN6CC[C@]43[C@@H]65)C2)C1 [vincristine] + O=C1NC(=O)/C(=C/c2ccc(-c3ccc(F)cc3O)o2)S1 [AS252424] (first compound 0.0001 µM, partner dose 1 µM)",–,83.7,67.5,62,83.8,55.9,67,100,95.2,80.4
"N#CC[C@H](C1CCCC1)n1cc(-c2ncnc3[nH]ccc23)cn1 [ruxolitinib] + CCN(CC)CCCCNc1ncc2cc(-c3cc(OC)cc(OC)c3)c(NC(=O)NC(C)(C)C)nc2n1 [PD173074] (first compound 1 µM, partner dose 0.1 µM)",–,108,118,106,121,96.7,114,100,116,142
"CC[C@]1(O)C[C@H]2CN(CCc3c([nH]c4ccccc34)[C@@](C(=O)OC)(c3cc4c(cc3OC)N(C=O)[C@H]3[C@@](O)(C(=O)OC)[C@H](OC(C)=O)[C@]5(CC)C=CCN6CC[C@]43[C@@H]65)C2)C1 [vincristine] + Cn1c(Nc2ccc(C(F)(F)F)cc2)nc2cc(Oc3ccnc(-c4ncc(C(F)(F)F)[nH]4)c3)ccc21 [CHIR265] (first compound 0.0001 µM, partner dose 0.08 µM)",70.2,49.4,44.7,61.2,45.8,40.7,31,–,–,–
"CC[C@]1(O)C[C@H]2CN(CCc3c([nH]c4ccccc34)[C@@](C(=O)OC)(c3cc4c(cc3OC)N(C=O)[C@H]3[C@@](O)(C(=O)OC)[C@H](OC(C)=O)[C@]5(CC)C=CCN6CC[C@]43[C@@H]65)C2)C1 [vincristine] + CO[C@H]1C[C@@H]2CC[C@@H](C)[C@@](O)(O2)C(=O)C(=O)N2CCCC[C@H]2C(=O)O[C@H]([C@H](C)C[C@@H]2CC[C@@H](OCCO)[C@H](OC)C2)CC(=O)[C@H](C)/C=C(\C)[C@@H](O)[C@@H](OC)C(=O)[C@H](C)C[C@H](C)/C=C/C=C/C=C/1C [everolimus] (first compound 0.0001 µM, partner dose 0.02 µM)",74.3,57.6,46.2,75.5,36.3,44.3,38.4,–,–,–
"N#CC[C@H](C1CCCC1)n1cc(-c2ncnc3[nH]ccc23)cn1 [ruxolitinib] + CO[C@H]1C[C@@H]2CC[C@@H](C)[C@@](O)(O2)C(=O)C(=O)N2CCCC[C@H]2C(=O)O[C@H]([C@H](C)C[C@@H]2CC[C@@H](OCCO)[C@H](OC)C2)CC(=O)[C@H](C)/C=C(\C)[C@@H](O)[C@@H](OC)C(=O)[C@H](C)C[C@H](C)/C=C/C=C/C=C/1C [everolimus] (first compound 1 µM, partner dose 0.02 µM)",78.3,74.5,76.5,82.9,69.6,76.5,89,–,–,–
"CC[C@]1(O)C[C@H]2CN(CCc3c([nH]c4ccccc34)[C@@](C(=O)OC)(c3cc4c(cc3OC)N(C=O)[C@H]3[C@@](O)(C(=O)OC)[C@H](OC(C)=O)[C@]5(CC)C=CCN6CC[C@]43[C@@H]65)C2)C1 [vincristine] + Nc1cccc2c1CN(C1CCC(=O)NC1=O)C2=O [lenalidomide] (first compound 0.0001 µM, partner dose 1 µM)",–,87.9,51.6,78.4,83.7,53.6,55.8,–,–,–
"Cc1cc(Nc2cc(N3CCN(C)CC3)nc(Sc3ccc(NC(=O)C4CC4)cc3)n2)n[nH]1 [Tozasertib] + Nc1cccc2c1CN(C1CCC(=O)NC1=O)C2=O [lenalidomide] (first compound 0.006 µM, partner dose 1 µM)",98.5,83.8,113,115,85,88.6,106,–,–,–
"CC[C@]1(O)C[C@H]2CN(CCc3c([nH]c4ccccc34)[C@@](C(=O)OC)(c3cc4c(cc3OC)N(C=O)[C@H]3[C@@](O)(C(=O)OC)[C@H](OC(C)=O)[C@]5(CC)C=CCN6CC[C@]43[C@@H]65)C2)C1 [vincristine] + Cn1cnc2c(F)c(Nc3ccc(Br)cc3Cl)c(C(=O)NOCCO)cc21 [selumetinib] (first compound 0.0001 µM, partner dose 0.015 µM)",94.7,90.7,51.6,84.1,73.7,55,57.2,–,–,–
"Cc1cc(Nc2cc(N3CCN(C)CC3)nc(Sc3ccc(NC(=O)C4CC4)cc3)n2)n[nH]1 [Tozasertib] + O=C(O)c1ccc2c(c1)nc(Nc1cccc(Cl)c1)c1ccncc12 [CX4945] (first compound 0.006 µM, partner dose 0.4 µM)",87.3,87.8,95.5,83,86.9,85.7,88.9,–,–,–
"N#CC[C@H](C1CCCC1)n1cc(-c2ncnc3[nH]ccc23)cn1 [ruxolitinib] + Cn1c(=O)n(-c2ccc(C(C)(C)C#N)cc2)c2c3cc(-c4cnc5ccccc5c4)ccc3ncc21 [NVP-BEZ235] (first compound 1 µM, partner dose 0.004 µM)",98.7,86.5,95.9,81.5,–,99.1,–,102,–,–
